Reference: PubChem BioAssay AID1645882 (National Center for Advancing Translational Sciences (NCATS), 2021)
The whole screen tested about 16,000 compounds, of which about 120 (0.75%) were called active. Inconclusive results (about 4%) are left out. Calls follow the shape of the dose curve; as a rule, active = well fitted inhibition curve with a large enough effect; inconclusive = small, poorly fitted or top-dose-only effect; inactive = no such curve, though single readings can be large or run the other way. The list shows a part of the results.

Molecular target: Rap guanine nucleotide exchange factor 3 (Homo sapiens) (UniProt O95398)
Assay: Validation qHTS for antagonist of cAMP-regulated guanine nucleotide exchange factor 3 (EPAC1);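 also: plate controls were DMSO for no effect and ATA control for full effect; nearly all actives have a fitted effect of over 75% in size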
Conditions: EPAC1 Rap1B-BODIPY-GDP exchange, fluorescence; series mostly up to 150 µM; activity change, negative = inhibition: at the top concentration
How it was run: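 Nucleotide exchange followed as fluorescence loss when BODIPY-GDP leaves Rap1B (480 nm excitation, 540 nm emission), read at 5 min intervals over 30 min. Reaction: 100 nM EPAC1, 250 nM RAP1B-BODIPY-GDP, 50 uM GDP; ATA and DMSO define normalization.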

Sequence of UniProt O95398 (O95398 whole entry, looked up): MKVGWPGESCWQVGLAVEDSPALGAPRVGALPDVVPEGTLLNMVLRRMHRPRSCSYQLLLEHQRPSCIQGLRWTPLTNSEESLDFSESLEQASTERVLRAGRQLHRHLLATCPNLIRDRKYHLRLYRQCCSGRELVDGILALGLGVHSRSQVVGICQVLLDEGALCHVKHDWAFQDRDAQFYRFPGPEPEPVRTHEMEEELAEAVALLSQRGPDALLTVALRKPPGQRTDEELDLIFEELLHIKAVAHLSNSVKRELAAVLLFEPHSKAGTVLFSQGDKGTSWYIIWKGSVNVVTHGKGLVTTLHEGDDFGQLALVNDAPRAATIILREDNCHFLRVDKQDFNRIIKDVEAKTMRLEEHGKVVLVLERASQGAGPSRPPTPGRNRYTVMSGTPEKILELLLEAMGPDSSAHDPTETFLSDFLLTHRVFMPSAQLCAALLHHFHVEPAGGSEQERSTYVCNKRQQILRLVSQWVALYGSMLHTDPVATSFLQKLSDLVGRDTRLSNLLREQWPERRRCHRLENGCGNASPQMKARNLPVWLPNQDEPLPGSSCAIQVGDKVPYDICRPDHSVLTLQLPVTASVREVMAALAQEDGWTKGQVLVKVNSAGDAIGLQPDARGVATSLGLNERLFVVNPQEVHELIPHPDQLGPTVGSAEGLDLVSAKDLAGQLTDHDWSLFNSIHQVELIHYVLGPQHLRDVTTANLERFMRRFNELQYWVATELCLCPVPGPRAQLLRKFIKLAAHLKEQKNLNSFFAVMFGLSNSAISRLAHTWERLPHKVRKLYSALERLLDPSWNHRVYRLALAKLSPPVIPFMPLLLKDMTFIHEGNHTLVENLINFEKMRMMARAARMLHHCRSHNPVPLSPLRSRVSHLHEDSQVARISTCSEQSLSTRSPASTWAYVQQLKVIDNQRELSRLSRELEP

Activity change, negative = inhibition, inactive:
CCOC(=O)c1ccc(NC(=O)CN2CCCCC2)cc1 1.27%
O=C([C@@H]1C[C@@H](Sc2nc3ccccc3[nH]2)CN1Cc1c(F)cccc1F)N1CCOCC1 13.7%
COc1ccc(CNc2cc(-c3cccnc3)ncn2)c(OC)c1 7.91%
COCCn1c(=O)c(C)nc2cnc(OCc3ccccc3)nc21 4.13%
O=C(OCCN1CCOCC1)C1(c2ccccc2)CCCCC1
CC(C)C[C@H](NC(=O)[C@H](Cc1ccccc1)NC(=O)c1cnccn1)B(O)O
COC(F)(F)C(Cl)Cl 5.09%
O=C1C(c2c(O)[nH]c3ccccc23)=Nc2ccccc21
O=C(c1csnn1)N1CCC2(CCCN(Cc3ccccc3)C2)CC1 -3.75%
CO[C@@H]1[C@@H](O[C@@H]2O[C@H](C)[C@@H](O[C@H]3C[C@@](C)(O)[C@@H](O)[C@H](C)O3)[C@H](N(C)C)[C@H]2O)[C@@H](CC=O)C[C@@H](C)[C@@H](O[C@@H]2CC[C@H](N(C)C)[C@@H](C)O2)/C=C/C=C/C[C@@H](C)OC(=O)C[C@H]1O 10.8% [at 75.8 µM]
CCNc1ncc2nc(CCc3ccccc3)c(=O)n(C3CC3)c2n1 5.16%
CC(C)C(C)/C=C/C(C)C1CCC2C3=CC=C4CC(O)CCC4(C)C3CCC21C (stereo not drawn) -16.9%
COc1ccc(-c2coc3cc(O)ccc3c2=O)cc1
Cc1cnc(-n2ncc(C(=O)N(C)Cc3cccc4ncccc34)c2C(C)C)nc1-c1ccc(F)cc1 6.03%
O=c1c(-c2ccccc2)nc2cnc(N3CCNCC3)nc2n1-c1ccccc1 1.09%
COc1ccccc1CN1CCCC(n2cc(C(=O)N3CCCCC3)nn2)C1 (stereo not drawn) 1.35%
Oc1c(Br)cc(Br)c2cccnc12 15.2%
CCC(=O)O[C@H]1CC[C@H]2[C@@H]3CCc4cc(O)ccc4[C@H]3CC[C@]12C -18%
CS(=O)(=O)Nc1cccc(-c2nc(Nc3ccc(F)cc3)c3ccccc3n2)c1 14.3%
CC(C)NC(=O)N1CC[C@@]2(CCCN(C(=O)c3ccco3)C2)C1 2.56%
Cc1cnc(CNc2ccnc(-c3cccnc3)n2)cn1 4.9%
COCCNc1ncnc2ccc(-c3ccc(N(C)C)cc3)cc12 15.1%
O=C(NCCN1CCOCC1)c1cnn(-c2nccc(-c3ccccc3C(F)(F)F)n2)c1C1CC1 8.89%
CCCCC/C(C=O)=C\c1ccccc1 12.8%
Clc1ccc2c(c1)C(N1CCNCC1)=Nc1ccccc1O2
O=C(Nc1ccccc1)N1CC[C@@]2(CCCN(C(=O)c3cc(C(F)(F)F)cc(C(F)(F)F)c3)C2)C1 -19.3%
CC(C)N=C(N)/N=C(\N)Nc1ccc(Cl)cc1 5.42% [at 75.8 µM]
C[C@@H](CN(C)C[C@H]1C(=O)O[C@@H]2C[C@@]3(C)CCC[C@]4(CO4)C3CC21)[C@H](O)c1ccccc1 (stereo partly drawn) 11.7%
O=C(Cn1ccnc1[N+](=O)[O-])NCc1ccccc1 14.5%
Cc1ncc2c(c1CNC(=O)c1ccccc1F)CCN(C(=O)c1[nH]c3ccc(Cl)cc3c1C)C2 -18.3%
O=C1c2ccccc2C(=O)C1c1ccccc1
CC1(C)OC2C[C@](O)(C(N)=O)C[C@H](O)[C@H]2O1 (stereo partly drawn) 11.3%
COc1ccc(S[C@@H](CCN2CC[C@H](O)CCC2=O)c2ccccc2)cc1 2.01%
CC(C)C[C@@H](CO)N1CCN(Cc2ccc(O)cc2)CCC1=O -19.5%
COCc1c(C(=O)N2CCC(N(C)C)C2)cnn1-c1ncc2c(n1)-c1ccccc1CCC2 (stereo not drawn) 19.7%
COc1cccc(Nc2ncc3nc(CCc4ccccc4)c(=O)n(C4CC4)c3n2)c1 29.4%
COc1ccc(CN2CCOc3ccc(CN4CCC(O)(c5cccnc5)CC4)cc3C2)cc1OC 0.582%
O=C(O)CCc1nc(-c2ccccc2)c(-c2ccccc2)o1
N#CC[C@H](Cc1ccccc1)N1CC[C@@H](NC(=O)OCc2ccccc2)CCC1=O 9.14%
NCCCCC(=O)O
c1ccc(CC2=NCCN2)cc1
CC(=O)OC1CC2C(C)(C)C(O)CC[C@@]2(C)C2CC[C@@]3(C)C(c4ccoc4)OC(=O)C4OC43[C@]12C (stereo partly drawn) 1.06%
C/C=C(\C)C(=O)OC1C(OC(=O)C2(C)OC2C)c2cc3ccc(=O)oc3cc2OC1(C)C (stereo not drawn) 8.01%
CC(C)(Oc1ccc(CCNC(=O)c2ccc(Cl)cc2)cc1)C(=O)O
OCCN1CCN(CCCN2c3ccccc3Sc3ccc(C(F)(F)F)cc32)CC1
O=C(c1ccncc1)N1CCC2(CCCN(c3ncccn3)C2)CC1 7.97%
Cc1cccnc1-c1cccc2c1OC(CNC(=O)C1CCCc3c1[nH]c1ccccc31)C2 (stereo not drawn) -17.2%
CCCCCCCCCCCCCC(=O)N[C@H](C)[C@@H](O)c1ccccc1 -10.4% [at 15.3 µM]
CC(=O)OCC1OC(n2cnc3c(Cl)nc(Cl)nc32)C(OC(C)=O)C1OC(C)=O (stereo not drawn) 15.8%
CC(CCC(=O)O)C1CCC2C3C(O)C[C@@H]4CC(O)CC[C@@]4(C)C3CC(O)[C@]12C (stereo partly drawn) 23.5%
Cc1noc(C)c1C(=O)N1CCC[C@@]2(CCN(c3ccccn3)C2)C1 7.82%
COCCn1c(=O)c(-c2cn(C)c3ccccc23)nc2cnc(N3CCNCC3)nc21 5.83%
COc1cc(=O)n2c(c1C(=O)N(C)Cc1nccs1)CCN(Cc1ccc(Cl)cc1)CC2 -1.82%
CC(C)(CNC(=O)c1cnn(-c2ncc3c(n2)-c2ccccc2CCC3)c1C1CC1)N1CCOCC1 -1.11%
COc1ccc(CNc2cc(-c3cccc(NS(C)(=O)=O)c3)ncn2)c(OC)c1 -7.81%
NC(=O)Nc1ccc(/C=C2\C=Cc3ccccc32)cc1 -3.26%
O=C(CCc1ccc(O)cc1)c1c(O)cc(O)cc1O[C@H]1OC(CO)C(O)C(O)C1O (stereo partly drawn) -1.23%
c1ccc(C(O[C@H]2CCCN(CCc3ccc4c(c3)OCO4)C2)c2ccccc2)cc1 -2.19%
COc1ccc(CN2CCC3(CC2)c2ccccc2[C@@H](NC(=O)c2ccco2)[C@@H]3OC)c(O)c1 12.2%
CN(C)c1ccc(/C=C2\CCCCC2=O)cc1 14.3%
COc1ccc(-c2nc3cc(F)ccc3cc2CN(C(=O)c2cccs2)C2CC2)cc1 2.87%
CC1=C(/C=C/C(C)=C/C=C/C(C)=C/C=C/C=C(C)/C=C/C=C(C)/C=C/C2=C(C)CCCC2(C)C)C(C)(C)CCC1 25.3%
O=C(Nc1ccccc1)[C@@H]1CC=C[C@@H]2CCN(Cc3ccc(Cl)c(Cl)c3)C(=O)[C@@H]21 -19.5%
COc1ccc(-n2c(=O)c(-c3ccc(Cl)cc3)nc3cnc(N4CCOCC4)nc32)cc1 -7.87%
COc1ccccc1C(=O)N[C@@H]1c2ccccc2C2(CCN(Cc3cnn(C)c3C)CC2)[C@H]1O 4.37%
CC(C(=O)O)c1ccc(CC2CCCC2=O)cc1 (stereo not drawn)
O=C1CC[C@H](O)CCN1CCSc1ccc(Br)cc1 9.2%
CCOC(=O)C[C@H]1c2cc(F)ccc2S(=O)(=O)N1C(C)C 9.98%
Cc1c(C(=O)N(C)C2CCOC2)cnn1-c1ncc2c(n1)-c1ccccc1CCC2 (stereo not drawn) 6.04%
Cc1ccccc1C(=O)NC(C)c1nnc2n1CCN(Cc1ccnc3ccccc13)CC2 (stereo not drawn) 11.6%
COC(=O)c1c(OCc2cccnc2)cc(=O)n2c1CCN(C(=O)c1cccc(N(C)C)c1)CC2 5.93%
Cc1cccc(CNC(=O)c2cnn(-c3ncc(C)c(-c4ccc(F)cc4)n3)c2C)n1 5.96%
C/C(=C(\CCO)SS/C(CCO)=C(\C)N(C=O)Cc1cnc(C)nc1N)N(C=O)Cc1cnc(C)nc1N -14.4%
CC[C@H]1OC(=O)[C@H](C)[C@@H](O[C@H]2C[C@@](C)(OC)[C@@H](O)[C@H](C)O2)[C@H](C)[C@@H](O[C@@H]2O[C@H](C)C[C@H](N(C)C)[C@H]2O)[C@](C)(O)C[C@@H](C)C(=O)[C@H](C)[C@@H](O)[C@]1(C)O
COC(=O)C1C(O)CC[C@H]2CN3CCc4c([nH]c5ccccc45)C3C[C@H]12 (stereo partly drawn) 5.5%
CC[C@@H](C(=O)O)[C@@H]1O[C@@H]([C@@H](C)[C@H](O)[C@H](C)C(=O)[C@H](CC)[C@H]2O[C@]3(C=C[C@@H](O)[C@]4(CC[C@@](C)([C@H]5CC[C@](O)(CC)[C@H](C)O5)O4)O3)[C@H](C)C[C@@H]2C)[C@@H](C)C[C@@H]1C 13.3%
COc1ccccc1-c1nccc(Nc2ccc(F)cc2)n1 3.36%
O=C(Nc1cc(C(=O)NC2CCOCC2)c2c(c1)ncn2C1CCCC1)c1ccccc1 3.99%
COc1cc(=O)n2c(c1C(=O)N(C)Cc1cscn1)CCN(C(=O)c1ccc(C)cc1C)CC2 7.2%
CC(Oc1ccc(O)cc1)(P(=O)(O)O)P(=O)(O)O 21.6%
COc1cc(=O)n2c(c1C(=O)NCc1ccsc1)CCN(Cc1nc3ccccc3[nH]1)CC2 -2.85%
Cc1c(Cl)cccc1Nc1ccccc1C(=O)O -7.54%
COc1ccccc1-c1nc(N(C)Cc2ccco2)c2ccccc2n1 -4.32%
Cc1cc2c(c(-c3cnccn3)c1)OC(CNC(=O)c1ccc(-n3nc(C)cc3C)cc1)C2 (stereo not drawn) 6.62%
CN(C)c1ncc2nc(-c3ccccc3)c(=O)n(C[C@H]3CCCO3)c2n1 19.4%
COc1ccc(CNc2ncnc3ccc(-c4ccc(C(=O)N(C)C)cc4)cc23)c(OC)c1 -2.24%
Brc1c(Br)c(Br)c2[nH]cnc2c1Br 10.7% [at 75.8 µM]
c1nc(N2CCNCC2)c2cc(-c3ccoc3)ccc2n1 9.71%
COC(=O)[C@H]1[C@H]2C[C@@H]3c4[nH]c5cc(OC)ccc5c4CCN3C[C@H]2C[C@H](OC)[C@@H]1OC 9.68%
COc1ccc(OC)c(-c2ccnc(-n3ncc(C(=O)N(C)CCO)c3C3CC3)n2)c1 15.2%
CC(C)(C)c1ccc(/C=C/C(=O)Nc2ccc3c(c2)OCCO3)cc1 -2.16% [at 75.8 µM]
Cc1c(C(C)C)c(=O)n(-c2ccccc2)n1C 9.08%
CNC(=O)[C@H]1O[C@@H](n2cnc3c(N)ncnc32)[C@H](O)[C@@H]1O 32.5%
